42 compounds from ChEMBL document CHEMBL4888484, “Replenishing the malaria drug discovery pipeline: Screening and hit evaluation of the MMV Hit Generation Library 1 (HGL1) against asexual blood stage Plasmodium falciparum ,using a nano luciferase reporter read-out” (2022) can be followed below.

Out of some 150,000 compounds screened, about 540 (0.36%) showed an effect of 50% or more. The list shows a part of the results.

By % Inhibition is commonly meant the change of the read-out against control, counted positive when it falls.

For the experiment, the system named is Plasmodium falciparum. The experiment in a line: Primary screen in NF54 nanoGlo assay, in single point, at 2uM, 72h; a lower Z score goes with more inhibition. Type of experiment: functional, Erythrocyte. The following applies: timepoint 72 hour.
As to `Cc1nc([C@@H]2CCCN2S(=O)(=O)C2(C)CC2)[nH]c1C`, the “% Inhibition” value was found to be 6% and the Z score was -0.66.
`CN(CC(N)=O)Cc1cc2n(n1)CCN(Cc1ccc(-c3ccco3)cc1)C2`: the “% Inhibition” value is on record as -11% and the Z score worked out at 1.51.
On the same counts, the results for `O=C(Nc1ccc(Oc2ccccc2)cc1)O[C@@H]1CO[C@H]2[C@@H]1OC[C@@H]2NC(=O)c1ccccn1` are 0% and 0.06.
Taken in the same sequence, the figures for `[O-][S+]1CCN(Cc2ccc(F)cc2)CC1` were -17% and 2.06.
On the same counts, the results for `CC1CCC(CNc2cnc(C#N)cn2)CC1` (centres undefined) are 3% and -0.41.
On to `Cc1noc(C)c1Cn1cc(C2CCCCC2)nn1`, for which the “% Inhibition” value was -13% and the Z score was 1.97.
On to `Cc1nc(C(=O)NCc2cccnc2N2CCN(C)CC2)c(C)s1`, for which the “% Inhibition” value is reported as -2% and the Z score is recorded as 0.2.
Taken in the same sequence, the figures for `COC(=O)c1cnc(N(C)S(=O)(=O)c2cnn(C(C)C)c2)s1` were -29% and 3.4.
In the case of `NC(=O)c1cc(O)ccc1C(F)(F)F`, the “% Inhibition” value is recorded as -1% and the Z score was determined as 0.1.
On the same counts, the results for `COCCN1CCC[C@H](CNC(=O)N2CCC(c3ccccc3)CC2)C1` are -6% and 1.1.
Consider `COc1ccccc1CCNC(=O)[C@@H]1CCCN1c1nc(C)c2ccc(S(C)(=O)=O)cc2n1`, for which the “% Inhibition” value was 2% and the Z score is on record as -0.37.
Taken in the same sequence, the figures for `CCC(=O)c1cccc(S(=O)(=O)N2CCN(Cc3c(C)nc4n3CCCC4)CC2)c1` were -8% and 0.8.
With `CC(C)(C)C[C@H](NCc1ccncc1)c1cccnc1`, the “% Inhibition” value is given as -1% and the Z score was 0.14.
On the same counts, the results for `COc1ccc(C2=NO[C@](CC(=O)Nc3ccccc3)(C(=O)O)C2)cc1` are -27% and 3.17.
Regarding `CCc1nc(-c2ccccc2)nc(N2CCN(C(=O)c3ccc(F)cc3)CC2)c1Cc1cccc(Cl)c1`, the “% Inhibition” value is given as -4% and the Z score was found to be 0.43.
For `Cc1ccc(S(=O)(=O)Nc2ccc(N3CCN(Cc4ccc(F)cc4F)CC3)nc2)cc1`, the “% Inhibition” value is reported as 1% and the Z score is -0.22.
Turning to `CC(C)c1nc(CN(C)[C@@H](C)C(=O)Nc2nccs2)cs1`, the “% Inhibition” value is listed as 30% and the Z score is reported as -3.93.
Taken in the same sequence, the figures for `N#CCCn1ncc2c(N3CCO[C@H](c4ccccc4)C3)ncnc21` were 8% and -1.07.
On the same counts, the results for `COCCCn1c(-c2ccccn2)nnc1N1CC[C@H](C2CCOCC2)C1` are 7% and -0.77.
On the same counts, the results for `C#CCNC(=O)C1C2CCC(C2)N1C(=O)c1ccccc1` (centres undefined) are 6% and -0.88.
With `O=C(c1ccccc1)N1CC(COc2ccccc2)OC(c2ccc(Cl)cc2Cl)O1` (centres undefined), the “% Inhibition” value is on record as -12% and the Z score is listed as 1.31.
Consider `CC(C)[C@@]1(O)CN(S(=O)(=O)N(C)Cc2ccccc2)C[C@@H]1C`, for which the “% Inhibition” value was -9% and the Z score is 1.74.
On the same counts, the results for `CC(=O)N1CCc2ccc(NC(=O)c3c(-c4ccccc4Cl)noc3C)cc21` are -13% and 2.21.
Taken in the same sequence, the figures for `O=C1CCCc2nc(NC(=O)c3cccc4c3CCCC4)ccc21` were -11% and 1.42.
For the compound `C[C@@H](CNc1ccccc1)NC(=O)c1cccn1C`, the “% Inhibition” value was -7% and the Z score was 0.63.
Take `CCN(C(=O)NCCCN(C)c1ccccc1)[C@H]1COC[C@@H]1O`: the “% Inhibition” value was -12% and the Z score came out at 1.13.
On the same counts, the results for `c1cc(N2CCCN(c3ccnc(C4CC4)n3)CC2)nc(C2CC2)n1` are -43% and 5.02.
On to `CN(Cc1ccsc1)C(=O)NCCc1cccs1`, for which the “% Inhibition” value is -12% and the Z score came out at 1.12.
Taken in the same sequence, the figures for `CCCc1noc(C(C)N(C)CC2CCN(CC(C)O)CC2)n1` (centres undefined) were 2% and -0.15.
Consider `Cc1nc(CNC(=O)[C@H]2CCN(c3ccc(C(F)(F)F)cn3)C2)no1`, for which the “% Inhibition” value is on record as -3% and the Z score came out at 0.45.
As for `CCn1cc(Br)c(=O)c(NC(=O)N2CCN(C(C)(C)CC)CC2)c1`, the “% Inhibition” value stood at 0% and the Z score was -0.04.
As for `CC(C)CCNC(=O)[C@@]12CCCC=C1N(C1CCCC1)C(=O)CC2`, the “% Inhibition” value is -15% and the Z score was found to be 1.48.
On to `Cc1ccccc1[C@H]1CN(C(=O)c2c(C)nn(C)c2C)C[C@@H]1C(=O)O`, for which the “% Inhibition” value is -10% and the Z score is reported as 2.19.
`COc1cccc(NC(=O)NC(C)C2CC3CCC2C3)c1` (centres undefined): the “% Inhibition” value is -5% and the Z score is 0.72.
Take `Cn1nc(-c2ccsc2)cc1NC(=O)NCC(F)(F)F`: the “% Inhibition” value was -16% and the Z score is 2.78.
For `O=C1N[C@]2(CCc3cc(Cl)ccc32)C(=O)N1Cc1ccccn1`, the “% Inhibition” value was -1% and the Z score worked out at 0.11.
Taken in the same sequence, the figures for `CN(C)c1ccccc1CN1CCn2c(nnc2C(F)(F)F)C1` were -3% and 0.64.
Take `O=C(CO)N1CCc2[nH]nc(-c3cccc(F)c3)c2C1`: the “% Inhibition” value is reported as -8% and the Z score was found to be 1.57.
With `CC(C)CN(C[C@H]1CN(C(=O)C2CCCC2)CCO1)C(=O)c1ccccc1`, the “% Inhibition” value is on record as -9% and the Z score worked out at 1.16.
On the same counts, the results for `CC(C)CC(=O)Nc1cc(C2CC2)nn1[C@H]1CCS(=O)(=O)C1` are -11% and 1.57.
On the same counts, the results for `Cn1nc(-c2ccccn2)nc1CCCn1cncn1` are -12% and 1.18.
As for `CC(C)(C)[C@H](NC(=O)c1ccc(OCc2ccc(Cl)cc2)cc1)c1nc(-c2ccccc2)no1`, the “% Inhibition” value was -6% and the Z score was 1.05.
